{"source": "PubChem BioAssay AID686979", "about": "(National Center for Advancing Translational Sciences (NCATS), 2013)", "note": "Several values for one entry are separate records, joined by “and”; a condition that tells them apart may be missing. Equal entries are not always repeated. Among all 420,000 compounds or so, about 50,000 (12%) were called active. Inconclusive means that the source gave no clear call. Such entries were picked first, then a sample of the others. The call rests on the fitted dose curve; in most records, active means well fitted inhibition curve with a large enough effect; inconclusive means small, poorly fitted or top-dose-only effect; inactive means flat fitted curve, though single readings scatter. No potency is given beside an inconclusive call; the fits are too rough. On the % scale 0 is the no-effect control and ±100 the full control effect; potency means the concentration at half of the fitted maximal effect; tags describe the fitted curve by direction and shape."}
{"assay": "qHTS for Inhibitors of human tyrosyl-DNA phosphodiesterase 1 (TDP1): qHTS in cells in presence of CPT; further: nearly all actives have a fitted effect of over 55% in size", "conditions": "chicken DT40 Tdp1-/-;hTDP1 cells + 20 nM CPT, ATP luminescence, 48 h; activity change, negative = growth inhibition: at 46.2 µM (top of the series) unless noted", "method_in_brief": "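Cell growth measured by CellTiter-Glo luminescence after a minimum 48 h, 37 C compound exposure with 20 nM CPT in Tdp1-knockout DT40 cells stably expressing hTDP1, seeded 400/well; qHTS titration format.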"}
{"smiles": "Cc1cccc(N2C(=O)N3[C@@H]4c5ccccc5OC[C@@H]4[C@@H](c4ccccc4)[C@]3(C)C2=O)c1", "Potency": "inconclusive [inhibitor, single point]"}
{"smiles": "CN(C)c1nc(N)nc(-c2nc3ccccc3s2)n1", "activity change, negative = growth inhibition": "inactive: 4.47%"}
{"smiles": "CCc1cnc2c(c1SCC(=O)Nc1ccc(C(=O)OC)cc1)c(=O)n(C)c(=O)n2C", "activity change, negative = growth inhibition": "inactive: 0.543%"}
{"smiles": "O=C(c1ccc(F)cc1)N1CCOC(c2nc(-c3ccc(F)cc3)no2)C1", "note": "(stereo not given)", "Potency": "inconclusive [inhibitor, single point]"}
{"smiles": "CCn1c2ccccc2c2cc(NC(=O)COc3cc(C)ccc3C)ccc21", "Potency": "inconclusive [inhibitor, single point]"}
{"smiles": "O=C(CSc1nnc(-c2cccs2)n1-c1ccccc1)N1CCCc2ccccc21", "Potency": "inconclusive [inhibitor, single point]"}
{"smiles": "O=C(Cc1cccs1)Nc1nnc(-c2ccccc2)s1", "activity change, negative = growth inhibition": "inactive: 0.349%"}
{"smiles": "COc1ccc(N2CCN(C(=O)CSc3nnc4n3C(C)(C)Cc3ccccc3-4)CC2)cc1", "Potency": "inconclusive [inhibitor, single point]"}
{"smiles": "O=C(COC(=O)c1cccc(NC(=O)c2ccc(Br)cc2)c1)c1ccc(Cl)cc1", "Potency": "inconclusive [inhibitor, single point]"}
{"smiles": "CC(C)(C)c1ccc(OCCOCCn2c(-c3ccc(Cl)cc3)nc3ccccc3c2=O)cc1", "activity change, negative = growth inhibition": "inactive: -12.1%"}
{"smiles": "Cc1ccc(S(=O)(=O)N2CCC(=O)N(CCOC(=O)Nc3ccc(F)cc3)CC2)cc1", "Potency": "inconclusive [inhibitor, single point]"}
{"smiles": "O=C(CNc1ccc(F)cc1Cl)Nc1cccc(S(=O)(=O)N2CCCCC2)c1", "Potency": "inconclusive [inhibitor, single point]"}
{"smiles": "COc1ccc(C(CNC(=O)c2cccc(S(=O)(=O)N3CCOCC3)c2)N2CCCC2)cc1", "note": "(stereo not given)", "activity change, negative = growth inhibition": "inactive: 7.41%"}
{"smiles": "C/C(=N\\NC(=O)c1c(Br)c(C)nn1C)c1ccc(NC(=O)C(C)Oc2ccc(Cl)cc2C)cc1", "note": "(stereo not given)", "Potency": "inconclusive [inhibitor, single point]"}
{"smiles": "O=C1C=CC(=O)N1c1ccc2c(c1)C(NC(=O)C(F)(F)F)c1ccccc1-2", "note": "(stereo not given)", "Potency": "active: 1.3 µM"}
{"smiles": "O=C(CCSc1nnc(-c2ccco2)o1)Nc1ccc(Cl)cc1", "Potency": "inconclusive [inhibitor, partial curve, poor fit]"}
{"smiles": "CCCCc1cc(=O)oc2c(CN3CCCC3)c(O)ccc12", "activity change, negative = growth inhibition": "inactive: 4.94%"}
{"smiles": "CC(C)Cn1c(=O)c2c(nc3n2CCS3)n(C)c1=O", "activity change, negative = growth inhibition": "inactive: 19%"}
{"smiles": "CCOC(=O)C1CCCN(S(=O)(=O)c2ccc3c4c(cccc24)C(=O)N3CC)C1", "note": "(stereo not given)", "Potency": "inconclusive [inhibitor, partial curve]"}
{"smiles": "CCOc1ccc(NC(=O)Cc2ccccc2)cc1", "activity change, negative = growth inhibition": "inactive: -3.38%"}
{"smiles": "COc1ccc(-c2noc(CN3CCN(C(=O)c4cccs4)CC3)n2)c(OC)c1OC", "Potency": "inconclusive [inhibitor, single point]"}
{"smiles": "CCN(CC)c1ccc(C=Nc2ccc(N(C)C)cc2)c(O)c1", "Potency": "inconclusive [inhibitor, single point]"}
{"smiles": "Cc1ccc2nc(-c3cccc(SC4CCCCC4)c3)c(NC3CCCCC3)n2c1", "Potency": "active: 29.1 µM and active: 20.6 µM"}
{"smiles": "O=C(/C=C/c1ccccc1)Nc1nc2n(n1)C(c1ccc(F)cc1)C=C(c1ccccc1)N2", "note": "(stereo not given)", "Potency": "active: 7.31 µM"}
{"smiles": "COc1cc(OC)cc(C(=O)Nc2ccc(C(=O)c3ccncc3)cc2)c1", "Potency": "inconclusive [inhibitor, single point]"}
{"smiles": "O=C1C(=NO)CC(c2ccccc2)N1c1ccccc1", "note": "(stereo not given)", "activity change, negative = growth inhibition": "inactive: -9.05%"}
{"smiles": "CC1CCC(n2c(=S)[nH]c3ccccc3c2=O)CC1", "note": "(stereo not given)", "activity change, negative = growth inhibition": "inactive: -10.2%"}
{"smiles": "CC1CCN(c2nnc(-c3cccs3)c3ccccc23)CC1", "Potency": "active: 25.9 µM"}
{"smiles": "O=C(COC(=O)CCC(=O)c1cccs1)Nc1ncc(Cl)cc1Cl", "activity change, negative = growth inhibition": "inactive: -5.09%"}
{"smiles": "CCOc1cc(/C=C2\\C(=N)N3N=CSC3=NC2=O)ccc1OS(=O)(=O)c1ccccc1", "Potency": "inconclusive [inhibitor, single point]"}
{"smiles": "Cc1cc(C)c(S(=O)(=O)NCC(c2ccco2)S(=O)(=O)c2cccs2)c(C)c1", "note": "(stereo not given)", "Potency": "inconclusive [inhibitor, partial curve, poor fit]"}
{"smiles": "Cc1cc(Br)cc2c1N(Cc1ccccc1OC(C)C)C(=O)C2=O", "Potency": "active: 20.6 µM"}
{"smiles": "Cc1occc1C(=O)NNC(=O)c1nn(C)c(=O)c2ccccc12", "activity change, negative = growth inhibition": "inactive: 0.487%"}
{"smiles": "C[C@H](O)[C@@H]1C(=O)N2CCc3ccc(-c4cccc(F)c4)cc3[C@@H]2C[C@@H]1N(C)C(=O)Nc1ccccc1", "Potency": "inconclusive [inhibitor, single point]"}
{"smiles": "Cc1ccc(N2CC(C(=O)Nc3ccccc3N3CCCC3)CC2=O)cc1", "note": "(stereo not given)", "Potency": "inconclusive [inhibitor, single point]"}
{"smiles": "CCCc1cc(=O)n2[nH]cc(-c3ccc(Cl)cc3)c2n1", "Potency": "active: 5.8 µM"}
{"smiles": "CC(=O)c1ccc(-n2c(=O)[nH]c(=O)c3c(N)c(C(=O)c4ccc(Cl)cc4)sc32)cc1", "Potency": "inconclusive [inhibitor, single point]"}
{"smiles": "O=C1/C(=C/c2ccccc2)SC(=S)N1CCCC(=O)N1CCCCC1CCO", "note": "(stereo not given)", "Potency": "inconclusive [inhibitor, single point]"}
{"smiles": "COc1ccc(C(=O)Nc2cccnc2Sc2ccc(Cl)cc2)cc1", "activity change, negative = growth inhibition": "inactive: -20.3%"}
{"smiles": "CC1CCc2onc(C(=O)N3CCN(c4cccc(Cl)c4)CC3)c2C1", "note": "(stereo not given)", "Potency": "inconclusive [inhibitor, single point]"}
{"smiles": "O=C(NC(=S)Nc1cccc2c(O)cccc12)c1ccco1", "activity change, negative = growth inhibition": "inactive: -27.9%"}
{"smiles": "CCc1nn2c(=O)c(S(=O)(=O)Nc3ccc(C)c(C)c3)c(C)nc2s1", "Potency": "inconclusive [inhibitor, partial curve, poor fit]"}
{"smiles": "COc1cc(OC)cc(C(=O)Oc2ccc(/C=N/Nc3nc4ccccc4s3)cc2OC)c1", "Potency": "inconclusive [inhibitor, single point]"}
{"smiles": "CC(C)(C)c1cccc(S(=O)(=O)N2CCN(c3nc(-c4cccs4)nc4ccccc34)CC2)c1", "Potency": "inconclusive [inhibitor, single point]"}
{"smiles": "COc1ccc2oc(=O)c(C(=O)N3CCN(C(=O)c4ccccc4)CC3)cc2c1", "activity change, negative = growth inhibition": "inactive: -23.1%"}
